Test results reported in US20250381289A1 (Genmab, published 2025).

T1: human HER4 recombinant protein (human, UniProt Q15303 26-649, limits assumed)
T1 sequence (looked up): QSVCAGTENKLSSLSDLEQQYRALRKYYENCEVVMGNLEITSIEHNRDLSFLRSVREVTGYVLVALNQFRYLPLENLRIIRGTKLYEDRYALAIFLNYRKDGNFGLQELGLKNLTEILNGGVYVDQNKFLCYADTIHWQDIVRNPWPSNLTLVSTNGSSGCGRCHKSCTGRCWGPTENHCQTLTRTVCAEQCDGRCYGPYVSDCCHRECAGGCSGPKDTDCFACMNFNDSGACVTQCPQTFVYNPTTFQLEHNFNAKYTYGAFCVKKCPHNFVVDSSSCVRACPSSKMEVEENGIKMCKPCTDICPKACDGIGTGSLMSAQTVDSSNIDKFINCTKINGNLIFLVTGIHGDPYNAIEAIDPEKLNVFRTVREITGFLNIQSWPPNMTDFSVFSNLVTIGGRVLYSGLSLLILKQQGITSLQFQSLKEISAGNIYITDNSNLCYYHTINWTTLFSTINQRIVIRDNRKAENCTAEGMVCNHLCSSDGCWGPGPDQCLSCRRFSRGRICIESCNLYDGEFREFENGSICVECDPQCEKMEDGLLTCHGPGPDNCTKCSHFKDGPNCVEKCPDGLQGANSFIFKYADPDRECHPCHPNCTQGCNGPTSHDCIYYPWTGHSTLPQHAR

B1: Bsab 67 (bispecific antibody, human IgG1, kappa, L234A L235A)
chain 1: AIQLTQSPESLSASVGDRVTITCRASQDISSALVWYQQKPGKAPKLLIYDASSLESGVPDRFSGSESGTDFTLTISSLQPEDFATYYCQQFNSYPLTFGGGTKVEIKRTVAAPSVFIFPPSDEQLKSGTASVVCLLNNFYPREAKVQWKVDNALQSGNSQESVTEQDSKDSTYSLSSTLTLSKADYEKHKVYACEVTHQGLSSPVTKSFNRGECGGGGSGGGGSGGGGSGGGGSGGGGSGGGGSGGGGSGGGGSQVQLVESGGGVVQPGRSLRLSCAASGFTFSTYGMHWVRQAPGQGLEWVAVIWDDGSYKYYGDSVKGRFTISRDNSKNTLYLQMNSLRAEDTAVYYCARDGITMVRGVMKDYFDYWGQGTLVTVSSASTKGPSVFPLAPSSKSTSGGTAALGCLVKDYFPEPVTVSWNSGALTSGVHTFPAVLQSSGLYSLSSVVTVPSSSLGTQTYICNVNHKPSNTKVDKKV[omitted - human IgG1 Fc with L234A L235A Y349C T366W (EU numbers)]
chain 2: DIVMTQSPDSLAVSLGERATINCKSSESVDSYANSFLHWYQQKPGQPPKLLIYRASTRESGVPDRFSGSGSGTDFTLTISSLQAEDVAVYYCQQSKEDPLTFGGGTKVEIKRTVAAPSVFIFPPSDEQLKSGTASVVCLLNNFYPREAKVQWKVDNALQSGNSQESVTEQDSKDSTYSLSSTLTLSKADYEKHKVYACEVTHQGLSSPVTKSFNRGECGGGGSGGGGSGGGGSGGGGSGGGGSGGGGSGGGGSGGGGSQVQLVQSGAEVKKPGASVKVSCKASGYIFTAYTMHWVRQAPGQGLEWMGWIKPNNGLANYAQKFQGRVTMTRDTSISTAYMELSRLRSDDTAVYYCARSEITTEFDYWGQGTLVTVSSASTKGPSVFPLAPSSKSTSGGTAALGCLVKDYFPEPVTVSWNSGALTSGVHTFPAVLQSSGLYSLSSVVTVPSSSLGTQTYICNVNHKPSNTKVDKKVEPKSCDKTHTCPPCPAPEAAGGPSVFLFPPKPKDTLMISRTPEVTCVVVDVSHEDPEVKFNWYVDGVEVHNAKTKPREEQYNSTYRVVSVLTVLHQDWLNGKEYKCKVSNKALPAPIEKTISKAKGQPREPQVYTLPPCRDELTKNQVSLSCAVKGFYPSDIAVEWESNGQPENNYKTTPPVLDSDGSFFLVSKLTVDKSRWQQGNVFSCSVMHEALHNHYTQKSLSLSPGK
notes: two chains, one knob and one hole; also called Basb 67
B2: Bsab 67-LD038 (5) (bispecific antibody, human IgG1, kappa, L234A L235A)
chain 1: B1 chain 1
chain 2: B1 chain 2
modifications: LD038 drug-linker coupled after TCEP reduction; DAR 5.1 by LC-MS; sites not given
notes: also called Basb 67-LD038 (5)

Tests used:
Human EGFR = target: T2, Human EGFR (human, UniProt P00533); experiment: ELISA, coated human EGFR, anti-human Fc-HRP
T2 construct: recombinant protein; also called human EGFR recombinant protein

[1] = target: T3, cMET on EGFR and cMET co-expressed tumor cell lines (UniProt P08581); experiment: flow cytometry, HT-29 cells (co-express EGFR and cMET; both arms contribute)
T3 construct: whole, on cells

[2] = target: T4, EGFR on EGFR and cMET co-expressed tumor cell lines (UniProt P00533); experiment: as above
T4 construct: whole, on cells

[3] = target: T3, cMET on EGFR and cMET co-expressed …; experiment: flow cytometry, SNU-5 cells (co-express EGFR and cMET; both arms contribute)
[4] = target: T4, EGFR on EGFR and cMET co-expressed …; experiment: as above
[5] = target: T3, cMET on EGFR and cMET co-expressed …; experiment: flow cytometry, EBC-1 cells (co-express EGFR and cMET; both arms contribute)
[6] = target: T4, EGFR on EGFR and cMET co-expressed …; experiment: as above
[7] = target: T3, cMET on EGFR and cMET co-expressed …; experiment: flow cytometry, CAL-27 cells (co-express EGFR and cMET; both arms contribute)
[8] = target: T4, EGFR on EGFR and cMET co-expressed …; experiment: as above
[9] = target: T5, human HER3 recombinant protein (human, UniProt P21860 in part); experiment: ELISA, coated human HER3, anti-human Fc-HRP
[10] = target: T3, cMET on EGFR and cMET co-expressed …; experiment: flow cytometry, A431 cells (co-express EGFR and cMET; both arms contribute)
[11] = target: T4, EGFR on EGFR and cMET co-expressed …; experiment: as above
[12] = target: T3, cMET on EGFR and cMET co-expressed …; experiment: flow cytometry, KYSE-30 cells (co-express EGFR and cMET; both arms contribute)
[13] = target: T4, EGFR on EGFR and cMET co-expressed …; experiment: as above
[14] = target: T3, cMET on EGFR and cMET co-expressed …; experiment: flow cytometry, EBC-1 cells (co-express EGFR and cMET; both arms contribute); remark: listed apart in the source
[15] = target: T4, EGFR on EGFR and cMET co-expressed …; experiment: as above; remark: listed apart in the source
[16] = target: T5, human HER3 recombinant protein; experiment: ELISA, plate coated with 100 ng/well human HER3 recombinant protein, HRP anti-human Fc, OD450
[17] = target: T1, human HER4 recombinant protein; experiment: ELISA, plate coated with 100 ng/well human HER4 recombinant protein, HRP anti-human Fc, OD450

Row | Binder | EC50 (read off the curve) (Human EGFR) | EC50 (read off the curve) [1] | EC50 (read off the curve) [2] | EC50 (read off the curve) [3] | EC50 (read off the curve) [4] | EC50 (read off the curve) [5] | EC50 (read off the curve) [6] | EC50 (read off the curve) [7] | EC50 (read off the curve) [8] | binding result [9] | EC50 (read off the curve) [10] | EC50 (read off the curve) [11] | EC50 (read off the curve) [12] | EC50 (read off the curve) [13] | EC50 (read off the curve) [14] | EC50 (read off the curve) [15] | binding result [16] | binding result [17]
1 | B1 | ~0.5 nM | ~2 nM | ~2 nM | ~3 nM | ~3 nM | ~3 nM | ~3 nM | ~3 nM | ~3 nM | no binding (tested: about 130 nM) | ~3 nM | ~3 nM | ~4 nM | ~4 nM | ~3 nM | ~3 nM | – | –
2 | B2 | – | – | – | – | – | – | – | – | – | – | – | – | – | – | – | – | no binding | no binding
